Assay results published in PMC4336329 (PLoS ONE, 2015).
In all, about 310,000 compounds went through this assay and about 2,200 (0.71%) showed an effect of 50% or more. Effects have a minus sign here. The list shows a part of the results.

biological target: human ether-à-go-go-related gene (hERG) potassium channel (human, UniProt Q12809); experiment: primary screen, population patch clamp on CHO cells stably expressing hERG
Sequence (Q12809 whole entry, looked up): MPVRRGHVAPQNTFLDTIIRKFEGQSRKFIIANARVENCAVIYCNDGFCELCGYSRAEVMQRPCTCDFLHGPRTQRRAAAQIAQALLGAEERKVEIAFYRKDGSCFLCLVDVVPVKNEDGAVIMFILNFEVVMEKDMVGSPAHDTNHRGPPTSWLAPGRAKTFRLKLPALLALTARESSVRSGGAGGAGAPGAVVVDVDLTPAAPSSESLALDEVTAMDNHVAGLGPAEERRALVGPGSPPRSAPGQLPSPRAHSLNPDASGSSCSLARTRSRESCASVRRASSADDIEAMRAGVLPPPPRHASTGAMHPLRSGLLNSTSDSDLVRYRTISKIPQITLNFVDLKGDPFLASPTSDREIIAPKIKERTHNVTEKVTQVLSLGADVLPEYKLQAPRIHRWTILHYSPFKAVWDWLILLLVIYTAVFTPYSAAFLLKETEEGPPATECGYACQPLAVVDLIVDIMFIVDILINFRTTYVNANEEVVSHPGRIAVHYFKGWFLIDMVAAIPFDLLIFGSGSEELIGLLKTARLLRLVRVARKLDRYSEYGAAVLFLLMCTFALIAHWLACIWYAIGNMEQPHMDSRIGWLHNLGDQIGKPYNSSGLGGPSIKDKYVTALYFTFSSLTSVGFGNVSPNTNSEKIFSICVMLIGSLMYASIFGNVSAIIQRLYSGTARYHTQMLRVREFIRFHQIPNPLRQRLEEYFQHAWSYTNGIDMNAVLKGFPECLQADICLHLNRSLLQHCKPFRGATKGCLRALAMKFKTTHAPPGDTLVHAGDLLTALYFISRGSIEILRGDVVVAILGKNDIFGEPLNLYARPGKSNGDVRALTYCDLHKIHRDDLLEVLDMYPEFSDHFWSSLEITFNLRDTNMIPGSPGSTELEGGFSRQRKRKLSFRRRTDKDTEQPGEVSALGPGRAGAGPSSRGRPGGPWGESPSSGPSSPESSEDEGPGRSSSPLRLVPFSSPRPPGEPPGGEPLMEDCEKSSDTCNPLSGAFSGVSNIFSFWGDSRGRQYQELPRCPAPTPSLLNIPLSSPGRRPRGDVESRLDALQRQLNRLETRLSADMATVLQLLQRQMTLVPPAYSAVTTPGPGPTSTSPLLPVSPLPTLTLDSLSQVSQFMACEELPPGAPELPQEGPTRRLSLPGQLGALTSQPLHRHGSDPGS

Row | SMILES | hERG current change (%, negative = inhibition) at 1uM [%]
1 | COCCN=C1N[C@@H](c2ccccc2)C(C(=O)OC)=C(C)N1Cc1ccccc1 | 1.71
2 | Cc1ccc(NC(=O)COC(=O)CCC(=O)c2cccs2)cc1 | 13.4
3 | O=C(c1ccc(Br)cc1)c1cn[nH]c1-c1ccccc1O | 16
4 | CC(=O)Nc1nc2c(C)c(Cl)ccc2s1 | 14.8
5 | COc1ccc(CNS(=O)(=O)c2ccc(-c3ccc(=O)[nH]n3)o2)cc1 | 20
6 | COc1c2ccc(C(=O)NCc3cc(C(F)(F)F)cc(C(F)(F)F)c3)cc2nn1C | 16.9
7 | C(=N\n1cnnc1)/c1ccccc1OCCOc1ccccc1 | 5.08
8 | CCOc1ccc(NC(=O)N(c2ccccc2)c2ccccc2)cc1 | 8.87
9 | CCOc1ccc(N2CC(C(=O)N3CCCCCC3)CC2=O)cc1 (stereo not shown) | 11.2
10 | Nc1ccc(C(=O)NCCCCCCNC(=O)c2ccc(N)cc2)cc1 | 8.2
11 | Cc1ccc(N(C(=O)c2ccc(S(=O)(=O)N3CCCC3)cc2)C2C=CS(=O)(=O)C2)cc1 (stereo not shown) | -4.81
12 | O=C(c1ccc(Cl)cc1)C1CCCN(C(=O)/C=C/c2ccccn2)C1 (stereo not shown) | -8.85
13 | CCC(C)C(=O)Nc1nnc(SCC(=O)N2C(C)CCCC2C)s1 (stereo not shown) | 8.39
14 | COC(=O)c1cccc(NC(=O)c2cnn(C)c2)c1 | 9.08
15 | COc1ccc(CCNC(=O)COc2cc(=O)n(C)c3ccccc23)cc1OC | 10.1
16 | CCn1nc(-c2ccccc2)c2nc3ccccc3nc21 | 7.53
17 | COC(=O)c1ccc(CN2CCC(n3nccc3NC(=O)C3CCCC3)CC2)cc1 | -26.7
18 | Cc1ccc(C(=O)CN2C(=O)c3ccccc3S2(=O)=O)cc1 | 14.6
19 | O=C(COC(=O)CNC(=O)c1ccc(-c2ccccc2)cc1)NCc1ccco1 | 10.5
20 | CCCCOC(=O)NC1(C)CCS(=O)(=O)C1 (stereo not shown) | 22.2
21 | C=CCn1c(COc2ccc(OC)cc2)nc2ccccc21 | -8.21
22 | COc1ccc(/C=C(\C#N)C(=O)Nc2cc(S(=O)(=O)N3CCCCC3)ccc2N2CCCCC2)cc1 | 7.8

Row | SMILES | hERG current change (%, negative = inhibition) at 1uM [%]
23 | O=C(c1cccc(-c2ccco2)c1)N1CCCC(N2CCN(c3ccc(F)cc3)CC2)C1 (stereo not shown) | -35.8
24 | COc1ccccc1CCNC(=O)C1(C)CC1(Cl)Cl (stereo not shown) | 17.4
25 | Cc1ccc(S(=O)(=O)C2C(=O)N(C)C3(C)CC2c2ccccc2O3)cc1C (stereo not shown) | 4.83
26 | Cc1csc(NC(=O)CSc2ccccc2F)n1 | 9.19
27 | CCN(CC)S(=O)(=O)c1ccc(NC(=O)CO/N=C(\N)c2ccccc2)cc1 | 13.4
28 | COc1cc(CN2CCC(C(=O)N3CCN(c4ccccc4F)CC3)CC2)cc(OC)c1OC.O=C(O)C(=O)O | -3.91
29 | CCN(CC(=O)Nc1c(F)cccc1F)C(=O)C1CCN(S(=O)(=O)c2ccc(F)cc2)CC1 | 8.96
30 | OCc1csc(=Nc2ccccc2)n1-c1ccccc1 | 5.08
31 | Cc1ccc(C)c(CSc2nnc([C@@H](N)C(C)C)o2)c1.Cl | 13.5
32 | Cc1cccc(NC(=O)c2nc[nH]c2C(=O)N[C@@H](CCCCNC(=O)OC(C)(C)C)C(=O)OC(C)(C)C)c1 | 16.4
33 | COc1ccc(-n2c(C)nc3cc(C(=O)NCc4ccc5c(c4)OCO5)ccc32)cc1 | 10.4
34 | CC1CCCCC12NC(=O)N(CC(=O)Nc1sc3c(c1C(N)=O)CCC3)C2=O (stereo not shown) | 8.61
35 | CS(=O)(=O)c1ccc(Cl)c(NC(=O)COc2ccc3c(c2)CCC3)c1 | -0.059
36 | COc1ccc(C(C)(C)C)cc1NS(=O)(=O)c1cccc2cccnc12 | 13.2
37 | Cc1cc(N)n(-c2ccccc2)n1 | 11.4
38 | O=C(CSc1nnc(Cc2cccs2)n1C1CC1)NC1CCS(=O)(=O)C1 (stereo not shown) | 11.2
39 | Cc1nc(NC(=O)c2ccccc2)sc1Cc1ccc2c(c1)OCO2 | 11.5
40 | COc1cc(NS(=O)(=O)c2ccc(NC(=O)NC3CCCCC3)cc2)nc(OC)n1 | 6.08
41 | O=C(CN1CCOCC1)Nc1nc2cc([N+](=O)[O-])ccc2s1 | 0.248
42 | Cc1ccc(C(=O)CN2C(=O)C(C)Oc3ccccc32)cc1 (stereo not shown) | 5.74
43 | O=C(NCCS(=O)(=O)NCc1ccccc1Cl)c1ccccc1 | 4.38
44 | CCCCn1c(N)c(N(CCOC)C(=O)CCc2ccc(OC)cc2)c(=O)[nH]c1=O | 5.93

Row | SMILES | hERG current change (%, negative = inhibition) at 1uM [%]
45 | C=CCNC(=O)COC(=O)c1ccc(Cl)c(S(N)(=O)=O)c1 | 12
46 | CN(CC(=O)NCc1ccccn1)S(=O)(=O)c1ccccc1 | 2.56
47 | Cc1nc(NCc2ccco2)[nH]c(=O)c1CCC(C)C | 6.9
48 | CC(OC(=O)COc1ccccc1[N+](=O)[O-])C(=O)Nc1ccc(N2CCOCC2)cc1 (stereo not shown) | 12.4
49 | COc1cc(CNC2CCCC2)cc(Cl)c1OCc1ccc(F)cc1.Cl | 2.49
50 | CN(Cc1ccccc1)C(=O)CN1C(=O)NC2(CCCC2)C1=O | -0.477
51 | CCOC(=O)C1=NN(c2ccccc2C)C2=NC(C)=C(C(=O)OC)C(c3cccs3)N12 (stereo not shown) | 7.41
52 | O=C(NCc1ccco1)/C(=C/c1cccc(C(F)(F)F)c1)c1nc2ccccc2[nH]1 | 22.2
53 | CCOCCCN(Cc1ccco1)S(=O)(=O)c1csc(C(N)=O)c1 | 20
54 | COc1cccc(C2NC(=S)NC(C)=C2C(=O)c2ccccc2)c1OC (stereo not shown) | 14.2
55 | CCCC(c1nnnn1Cc1ccccc1)N1CCC(C(N)=O)CC1.Cl (stereo not shown) | 6.46
56 | O=CN1CCN(C(=O)c2ccccc2F)CC1 | 18
57 | Cc1ccc(OS(=O)(=O)c2ccc(-c3csc(C)n3)s2)c(C)c1 | 14.9
58 | c1ccc2nc(OCCN3CC3)ccc2c1 | 6.14
59 | O=S(=O)(NCC(c1cccnc1)N1CCN(c2ccccc2F)CC1)c1cccs1 (stereo not shown) | -12.8
60 | O=C(NNS(=O)(=O)c1ccc(F)c(Cl)c1)c1cccc(S(=O)(=O)N2CCOCC2)c1 | 28.8
61 | O=C(NCc1ccccc1)c1ccc2c(=O)n(CC3CCCO3)c(=S)[nH]c2c1 (stereo not shown) | 12.6
62 | CN(CC(=O)Nc1ccc(S(=O)(=O)N2CCCC2)cc1)Cc1ccc(Cl)cc1Cl | 12.5
63 | COc1ccc(CCNC(=O)C2CCN(S(=O)(=O)N3CC(C)CC(C)C3)CC2)cc1OC (stereo not shown) | 4.55
64 | COC(=O)[C@@]12CCCCN1[C@H](c1ccc(-c3ccc4c(c3)OCO4)c(OC)c1)[C@@H]1C(=O)N(C)C(=O)[C@@H]12.O=C(O)C(F)(F)F | 14.6
65 | Cc1ccc(S(=O)(=O)N2CCC(C(=O)NCCCn3ccnc3)CC2)cc1 | 9.96
66 | Cc1ccc(C(=O)NC(=S)Nn2cnnc2)cc1 | 8.47

Row | SMILES | hERG current change (%, negative = inhibition) at 1uM [%]
67 | CCCCc1ccc(N=N/C(C(=O)Nc2ccccc2OC)=C(/C)O)cc1 | -7.03
68 | O=C(Nc1ccccc1)c1ccc(=O)n(Cc2ccc(F)c(F)c2)c1 | 6.42
69 | COc1ccc(OCc2cccc(C(=O)NN)c2)cc1 | 9
70 | CC(C)c1cc(C(=O)N/N=C/c2cccnc2)n[nH]1 | 11.7
71 | N#CC1=C(N)NC(=S)C(C(N)=O)C1c1ccccc1F (stereo not shown) | 12.6
72 | Cc1cccc(C)c1NC(=O)NC1CC2CCC(C1)N2Cc1cccs1 (stereo not shown) | 17.5
73 | O=C(NCCc1ccccc1)C(c1cccs1)N(C(=O)c1csnn1)C1CC1 (stereo not shown) | -28.6
74 | Cc1ccc(CNC(=O)CCc2nc3ccccc3c(=O)[nH]2)cc1 | 8.98
75 | O=C(O)CCSc1nc2ccccc2n1CCOc1ccccc1 | 2.86
76 | CCNC(=S)NNC(=O)C(c1ccccc1)c1ccccc1 | 1.4
77 | COc1cccc(CNC(=O)CN2C(=O)c3ccccc3S2(=O)=O)c1 | 25.5
78 | CCN(CC(=O)Nc1c(F)cccc1F)C(=O)/C=C/c1ccc(OCC#N)c(OC)c1 | -3.56
79 | COc1cc(O)c(C(C)=O)c(CC(=O)O)c1 | 0.0868
80 | N#CC1(NC(=O)CN2C(=O)NC3(CCCCCC3)C2=O)CCCCC1 | -0.329
81 | COc1ccc(CCNC(=O)c2cc(COc3c(C)cccc3C)on2)c(OC)c1 | -1.59
82 | CC1=C(N2CCN(c3ncccn3)CC2)CCC1=O | 5.68
83 | O=C(CSc1nnc(-c2cccnc2)s1)Nc1ccccc1 | 12.8
84 | CCC(OC(=O)C(NC(=O)c1ccccc1)c1ccccc1)C(=O)Nc1cc(C)on1 (stereo not shown) | 18.2
85 | CCOc1ccccc1N1CCN(C(=O)c2cc[n+]([O-])cc2)CC1 | 14.2
86 | Cc1no[n+]([O-])c1COc1ccccc1/C=N/n1nnnc1N | 15.3
87 | CCOc1cc(C(=O)NCC2CCCO2)cc(OCC)c1OCC (stereo not shown) | 0.71
88 | COCCSc1nnc(NC(=O)c2cc(OC)c(OC)cc2[N+](=O)[O-])s1 | 18
